From publication PMC9574860, “Chemical Toolkit for PARK7: Potent, Selective, and High-Throughput” (Journal of Medicinal Chemistry, 2022) come the findings set out here.

SMILES strings stand for the structures. Hit rate of the full screen: of about 7,900 compounds, about 400 (5.1%) showed an effect of 50% or more. This is one part of the list.

The target in the experiment is Parkinson's disease protein 7 (PARK7/DJ1) (human, UniProt Q99497). Put plainly: primary screen, percent inhibition; read as competition with a fluorescent probe by fluorescence polarization; higher = more effect of the substance. As to conditions: 100 µM. The method, boiled down: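 Fluorescence-polarization probe displacement (JYQ-107, 20 nM final, 2 h) after 2 h preincubation of PARK7 (0.2 μM final) with each fragment at 100 μM final. Read-out ex/em 480/520 nm; remaining activity derived from FP signal loss relative to reference controls.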
Sequence of Parkinson's disease protein 7 (PARK7/DJ1) (Q99497 whole entry, looked up, the tested form may be a part): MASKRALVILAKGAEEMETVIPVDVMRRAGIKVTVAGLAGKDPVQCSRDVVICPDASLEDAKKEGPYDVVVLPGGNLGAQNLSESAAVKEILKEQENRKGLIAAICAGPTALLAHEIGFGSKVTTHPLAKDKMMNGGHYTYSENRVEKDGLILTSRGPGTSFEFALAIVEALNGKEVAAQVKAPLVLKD
On to `C=CC(=O)NC1CCC(NC(C)=O)CC1` (stereo not drawn), for which the Inhibition % amounted to 4.84%.

As for `O=C(CCl)N(c1ccccc1)C1CCCCC1`, the Inhibition % is given as 2.98%.

Turning to `CCC1(C(=O)Nc2cccc(S(=O)(=O)F)c2)CCC1`, the Inhibition % was 93.8%. To `O=c1onc(-c2ccccn2)n1Cc1cccc(F)c1` belongs 29.8%; to `C=CC(=O)N1CCOCC1c1nc(-c2cccs2)no1` (stereo not drawn), 6.32%. To `CNC(=O)C(C#N)=Cc1cc(Cl)ccc1OC(F)F` belongs 7.7%; to `COCCCn1c(S)nc2ncccc2c1=O`, 3.34%; to `Cc1cc(S)ncn1`, 31.1%. As for `O=C1OCCC1Sc1nnnn1C1CC1` (stereo not drawn), the Inhibition % worked out at 5.76%.

For the molecule `O=C(CCl)NCc1cccc(Cl)c1`, the Inhibition % amounted to 10.9%. To `N#Cc1ncc(N)cc1Cl` belongs 18.7%; to `OC1CCCC(CCl)C1` (stereo not drawn), 7.28%. With `CCc1ccccc1NC(=O)CCl` the figure was 13.2%; with `C=CC(=O)N1CCOC(c2ccccc2F)C1` (stereo not drawn), 9.24%; with `O=C1CC(c2ccccc2Cl)N1` (stereo not drawn), 2.06%. Take `CC1(CNC(=O)c2ccc3c(=O)[nH]c(S)nc3c2)COC1`: the Inhibition % is 10.7%. To `C=CC(=O)N[C@@]12CCC[C@]1(OC)OCC2` (racemic) belongs 9.38%; to `C=CC(=O)N1Cc2cccc(F)c2C1`, 5.57%; to `N#Cc1ncn(Cc2ccc(C(F)(F)F)cc2)n1`, 5.17%.

Take `CN1C2CCC1CN(c1ccc(C#N)nc1)CC2` (stereo not drawn): the Inhibition % came to 8.89%. For `CN(Cc1cccc(F)c1)S(=O)(=O)F`, the Inhibition % worked out at 8.98%. To `CC1(C)Cc2cc(B3OC(C)(C)C(C)(C)O3)ccc2O1` belongs 3.19%; to `C=CC(=O)N1CCN(C(C)=O)CC1C` (stereo not drawn), 5.08%; to `Cc1cc(CN(C)c2ccc(C#N)nc2)no1`, -2.05%. For the molecule `C=CC(=O)N1CCN(C(C)=O)CC1(C)C`, the Inhibition % is recorded as 2.26%. For `Cc1cn(C)nc1B1OC(C)(C)C(C)(C)O1`, the Inhibition % was determined as 23.1%. To `CC1CC(N)CCN1C(=O)C=CC1CCCCC1` (stereo not drawn) belongs 6.96%; to `NCC1CCN(C(=O)C=Cc2cc3ccccc3o2)C1` (stereo not drawn), 5.72%.

In the case of `CC1COCCN1C(=O)CN1CCSC1=O` (stereo not drawn), the Inhibition % is given as 3.13%. As for `N#Cc1ncn(CC(=O)NCCc2ccccc2)n1`, the Inhibition % was 5.21%. With `CC(=O)N1CCN(C(=O)C=Cc2ccc(Cl)s2)CC1` the figure was 6.8%.

On to `Cn1cc(S(=O)(=O)Oc2cccc(F)c2C#N)cn1`, for which the Inhibition % stood at 4.8%. To `C=CC(=O)N1CCC(Cc2cnn(C)c2)C1` (stereo not drawn) belongs 2.37%. With `C=CC(=O)N1CC(Cc2cccs2)C1` the figure was 12.5%; with `Cc1nnc(S)c(C#N)c1C`, 53.3%; with `Cc1cc2nnc(SC3CC(C)OC3=O)n2c(C)n1` (stereo not drawn), 6.64%.

Turning to `CCOc1cc(S(=O)(=O)n2cccn2)ccc1F`, the Inhibition % is 0.878%. To `C=CC(=O)N1CCCC(c2ncccn2)C1` (stereo not drawn) belongs 3.35%. For the molecule `O=S(=O)(F)Cc1ccccc1`, the Inhibition % came out at 8.98%. To `C=CC(=O)N1CCCCC(SC)C1` (stereo not drawn) belongs 9.96%; to `N#Cc1ncn(Cc2ccc(C(N)=O)cc2)n1`, 8.99%; to `C=CC(=O)N1C2CCC1c1cnc(C(C)C)nc1C2` (stereo not drawn), 9.29%. With `COc1cc(C(=O)O)ccc1S(=O)(=O)F`, the Inhibition % amounted to 31.2%.

As to `Oc1ccnc(S)n1`, the Inhibition % came out at 2.99%. As for `CC1(C)OB(c2cccc(OCCCN3CCCC3)c2)OC1(C)C`, the Inhibition % was found to be 1.19%.

Consider `C=CC(=O)N1CCOC(COc2ccccc2)C1` (stereo not drawn), for which the Inhibition % is 11%. With `CCNC(=O)N1CCC(NC(=O)c2cccnc2S)C1` (stereo not drawn) the figure was 37.6%; with `Cc1cc(C)n(Cc2ccc(B3OC(C)(C)C(C)(C)O3)cc2)n1`, 0.0918%. Regarding `N#Cc1nnc(-c2ccccc2)s1`, the Inhibition % turned out to be 11.8%.

For `COc1cc(C=C(C#N)C(=O)NC(C)C)cc(Cl)c1O`, the Inhibition % was -0.272%.

In the case of `C=CC(=O)NC1(c2ccc(C(F)(F)F)cc2)CC1`, the Inhibition % was found to be 6.09%.

As for `CN(Cc1ccco1)c1ccc(C#N)nc1`, the Inhibition % is recorded as 25.1%.

Take `C=CC(=O)N1CC(S(=O)(=O)CC)C1`: the Inhibition % was found to be 5.18%. `OB(O)c1ccccc1CN1CCCCC1`: the Inhibition % is recorded as 2.94%. With `C=CC(=O)N1CC(S(C)(=O)=O)C1` the figure was 8.7%; with `O=C(O)Cn1nc(-c2ccc(F)cc2)oc1=O`, 12.4%; with `Cl.O=C(CCl)c1csc(N2CCCCC2)n1`, 2.02%. To `CC1(C)CCCN1C(=O)CCl` belongs 10.8%. Consider `C=CC(=O)N1CCCCC1Cn1cccn1` (stereo not drawn), for which the Inhibition % is listed as 1.43%. Regarding `C=CC(=O)NC1CCC(=O)N(C)C1` (stereo not drawn), the Inhibition % turned out to be 10.9%. With `C=CC(=O)N1CCc2nc(CC)ncc2C1`, the Inhibition % is recorded as 10.8%. With `O=C(CCl)NCc1ccc(Cl)s1` the figure was 15.9%; with `CC1(C)OB(c2ccc(S(C)(=O)=O)c(C#N)c2)OC1(C)C`, 5.87%; with `OCCc1cnc(S)nc1`, 8.67%. Take `N#Cc1ccc(C(=O)NNC(=O)CCl)cc1`: the Inhibition % is 6.48%. With `CC1(C)CNC(=S)NC1` the figure was 2.51%; with `Cc1ccc(Sc2ccc(NC(=O)CCl)cc2)c(C)c1`, 25.5%. Take `O=C(Nc1cccc(S(=O)(=O)F)c1)c1sccc1OC(F)F`: the Inhibition % is reported as 93.1%. To `CNC(=O)CNS(=O)(=O)C=Cc1ccccc1` belongs 6.07%; to `CC(NC(=O)C(C#N)=Cc1cccnc1)c1ccccc1` (stereo not drawn), -2.97%. With `O=C(c1cc(Cl)ccc1O)N1CCC(C2OCCO2)CC1` the figure was 6.92%; with `N#Cc1ccc(C(=O)O)c(=O)[nH]1`, 83.7%; with `Cc1ccc(C2CO2)cc1C` (stereo not drawn), 29.8%. With `CC1CCCN(c2ccc(C#N)nc2)CC1` (stereo not drawn) the figure was 11.3%; with `C=CC(=O)N1CC(=O)N(CCOC)C1`, 8.08%. Turning to `NS(=O)(=O)c1ccc(NC(=O)Oc2ccccc2)cc1`, the Inhibition % was 5.06%. With `CCC(NC(=O)CCl)c1ccc(Cl)cc1` (stereo not drawn) the figure was 14.1%. Regarding `Cc1ccc2[nH]c(C3CCCN3C(=O)c3ccc(B(O)O)cc3)nc2c1` (stereo not drawn), the Inhibition % was determined as 2.75%. With `Cn1ncc(C2CC2)c1CN1CCC(B(O)O)C1` (stereo not drawn), the Inhibition % amounted to 2.09%. With `Cc1ccc(C=C(C#N)C(=O)O)cc1F`, the Inhibition % is recorded as 6.58%. For `COc1cncc(C#N)n1`, the Inhibition % stood at 9.79%.
